{
  "source": "PubChem BioAssay AID686978",
  "about": "(National Center for Advancing Translational Sciences (NCATS), 2013)",
  "note": "Screen size: about 420,000 compounds; about 64,000 (15%) were called active. This list was built around the results that the source calls inconclusive (neither active nor inactive); the mix of calls is not that of the screen. Calls come from the whole dose curve; as a rule, active = well fitted inhibition curve with a large enough effect; inconclusive = small, poorly fitted or top-dose-only effect; inactive = flat fitted curve, though single readings scatter. No potency is given beside an inconclusive call; the fits are too rough. % is set by controls: 0 for no effect and ±100 for the full control effect; potency is the fitted concentration of half-maximal effect; tags give direction and shape of the fitted curve.",
  "data": [
    {"assay": "qHTS for Inhibitors of human tyrosyl-DNA phosphodiesterase 1 (TDP1): qHTS in cells in absence of CPT; note: nearly all actives have a fitted effect of over 55% in size", "conditions": "DT40 Tdp1-/- hTDP1 cells, no CPT, ATP luminescence, 48 h; activity change, negative = growth inhibition: at 46.2 µM (top of the series)", "summary_of_the_method": "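DT40 Tdp1-/-;hTDP1 cells, no CPT (DMSO vehicle only), 400 cells/well; compounds pin-transferred; ≥48 hr, 37 °C; CellTiter-Glo 30 min RT dark, luminescence read.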", "values": [
      {"smiles": "CC(=O)Nc1cccc(NC(=O)c2ccc(Br)cc2)c1", "Potency": "inconclusive [inhibitor, full curve, poor fit]"},
      {"smiles": "O=C(CCN1CCOCC1)NCC1COc2ccccc2O1", "note": "(configuration not stated)", "activity change, negative = growth inhibition": "inactive: -4.45%"},
      {"smiles": "CCOC(=O)c1c(C)oc2ccc(N(C(=O)c3ccncc3)S(=O)(=O)c3ccc(CC)cc3)cc12", "Potency": "active: 2.91 µM"},
      {"smiles": "Cn1cc(CCC(=O)N2CCCC(N3CCN(c4ccccc4F)CC3)C2)cn1", "note": "(configuration not stated)", "activity change, negative = growth inhibition": "inactive: 14%"},
      {"smiles": "Cc1onc(-c2c(F)cccc2Cl)c1C(=O)NCC1COc2ccccc2O1", "note": "(configuration not stated)", "Potency": "inconclusive [inhibitor, partial curve]"},
      {"smiles": "CSc1ncccc1C(=O)OCC(=O)c1ccc[nH]1", "activity change, negative = growth inhibition": "inactive: -21.2%"},
      {"smiles": "COc1ccc(Nc2nc3c(c(=O)n(C)c(=O)n3C)n2CCO)cc1", "activity change, negative = growth inhibition": "inactive: 0.299%"},
      {"smiles": "CCOc1ccc(NS(=O)(=O)c2ccc(C(=O)N(C)CC(=O)Nc3cccc(OC)c3)cc2)cc1", "Potency": "active: 16.4 µM"},
      {"smiles": "Cc1nn2c(-c3ccco3)nnc2c2ccccc12", "Potency": "active: 20.6 µM"},
      {"smiles": "O=C(CCC(=O)N1CCN(c2ccccc2F)CC1)c1ccc(Cl)s1", "Potency": "inconclusive [inhibitor, partial curve, poor fit]"},
      {"smiles": "CCOc1ccc(NC(=O)c2cn(CC(C)C)c(=O)c3c2c2ccccc2n3C)cc1", "Potency": "active: 8.2 µM"},
      {"smiles": "O=C(COc1cccnc1[N+](=O)[O-])NCCc1ccc(Cl)cc1Cl", "Potency": "inconclusive [inhibitor, single point]"},
      {"smiles": "Cc1c(C(=O)NCc2ccc3c(c2)OCO3)oc2ccc(S(=O)(=O)N3CCCCC3)cc12", "Potency": "inconclusive [inhibitor, single point]"},
      {"smiles": "CCOC(=O)c1c(C)[nH]c(CCC(=O)Nc2cc(Cl)ccc2OC)c1C", "Potency": "active: 20.6 µM"},
      {"smiles": "CCCn1nc(NC(=O)CC(C)C)c2cc3ccccc3nc21", "Potency": "inconclusive [inhibitor, partial curve]"},
      {"smiles": "CC(SC(C)C(=O)NN=Cc1cccc(Cl)c1)C(=O)NN=Cc1cccc(Cl)c1", "note": "(configuration not stated)", "Potency": "active: 16.4 µM"},
      {"smiles": "COc1ccc(OC)c(/C=C/C(=O)c2ccc3c(c2)OCO3)c1", "Potency": "inconclusive [inhibitor, single point]"},
      {"smiles": "C=C(C)CCC(C)N1CCC(n2nccc2NC(=O)CCCc2ccccc2)CC1", "note": "(configuration not stated)", "Potency": "inconclusive [inhibitor, single point]"},
      {"smiles": "CN(C)S(=O)(=O)N(CC(=O)Nc1ccc(C(F)(F)F)cc1)c1ccccc1", "Potency": "inconclusive [inhibitor, single point]"},
      {"smiles": "CCc1ccc(NC(=O)c2nc3nc(C)cc(C(F)F)n3n2)cc1", "Potency": "inconclusive [inhibitor, single point]"},
      {"smiles": "CCOC(=O)C(C)n1cnc2c(nnn2Cc2ccc(Cl)cc2)c1=O", "note": "(configuration not stated)", "activity change, negative = growth inhibition": "inactive: -17.1%"},
      {"smiles": "CCN(CC)/C(Sc1ccccc1)=C(/C(Cl)=C(Cl)Cl)[N+](=O)[O-]", "Potency": "inconclusive [inhibitor, single point]"},
      {"smiles": "COc1cc2c(cc1OC)-c1cc(N3CCCCCC3)nc(=O)n1CC2", "Potency": "inconclusive [inhibitor, single point]"},
      {"smiles": "O=S(=O)(Nc1nc2ccccc2nc1Cl)c1ccc2ccccc2c1", "Potency": "inconclusive [inhibitor, single point]"},
      {"smiles": "CC(C)c1ccc(NC2CCCN(C(=O)CN3CCCCC3=O)C2)cc1", "note": "(configuration not stated)", "activity change, negative = growth inhibition": "inconclusive: -32.2% [inhibitor]"},
      {"smiles": "CCc1nc2ccc(C(=O)Nc3ccc4c(c3)OCC(=O)N4)cn2c1N(C)Cc1nccn1C", "Potency": "inconclusive [inhibitor, single point]"},
      {"smiles": "Cc1sc(-n2cccc2)c(C(C)NC(=O)Nc2cccc(C(F)(F)F)c2)c1C", "note": "(configuration not stated)", "Potency": "active: 20.6 µM"},
      {"smiles": "COc1ccc(C(=O)Oc2ccc3oc(=O)sc3c2)cc1", "Potency": "inconclusive [inhibitor, single point]"},
      {"smiles": "CC(=O)Nc1cccc(-c2ccnc3c2CC(C(=O)Nc2ccccc2)O3)c1", "note": "(configuration not stated)", "Potency": "inconclusive [inhibitor, single point]"},
      {"smiles": "CC1(C)C(C=C(Cl)Cl)C1C(=O)N1CCN(Cc2ccccc2)CC1", "note": "(configuration not stated)", "Potency": "inconclusive [inhibitor, single point]"},
      {"smiles": "CCCCN1CC(=O)N2[C@@H]3c4cc(OC)ccc4OC[C@@H]3[C@H](C(=O)OCC)[C@]2(C)C1=O", "Potency": "inconclusive [inhibitor, single point]"},
      {"smiles": "CCc1cc(=O)oc2cc(OCC(=O)NCCCN3CCOCC3)c(Cl)cc12", "activity change, negative = growth inhibition": "inactive: 14%"},
      {"smiles": "CC1(C)C(=O)CC[C@@]2(C)C1CC(O)[C@@]1(C)C3=CC(=O)OC(c4ccoc4)[C@]3(C)CCC21", "note": "(some centres not stated)", "Potency": "inconclusive [inhibitor, single point]"},
      {"smiles": "Cc1ccc(S(=O)(=O)N2CC=C(c3c(C)n(CC(=O)N4CCCC4)c4ccccc34)CC2)cc1C", "Potency": "inconclusive [inhibitor, single point]"},
      {"smiles": "CCC(CC)c1nn2c(=O)cc(COc3ccc(NC(=O)c4cccc(C)c4)cc3)nc2s1", "Potency": "inconclusive [inhibitor, full curve, poor fit]"},
      {"smiles": "CCCc1cc(=O)oc2cc3oc(C)c(C)c3cc12", "Potency": "inconclusive [inhibitor, partial curve, poor fit]"},
      {"smiles": "O=C(CCC(=O)N1CCSc2ccccc21)Nc1ccc(Cl)cc1", "Potency": "active: 20.6 µM"},
      {"smiles": "CCN(CC)Cc1cc(Oc2ccc(O)c(CN(CC)CC)c2)ccc1O", "Potency": "active: 23.1 µM"},
      {"smiles": "CCOC(=O)[C@]12CCCC=C1N(Cc1cccc3ccccc13)C(=O)[C@H](CC(=O)N1CCN(C(=O)c3ccco3)CC1)C2", "Potency": "inconclusive [inhibitor, single point]"},
      {"smiles": "Cc1cc(C(F)(F)F)c(C#N)c(N2CCOCC2)n1", "Potency": "inconclusive [inhibitor, single point]"},
      {"smiles": "O=c1oc2ccccc2cc1-c1nnc(NCc2ccco2)s1", "Potency": "inconclusive [inhibitor, single point]"},
      {"smiles": "Cc1ccc(SCCNC(=O)c2ccccc2C)cc1", "activity change, negative = growth inhibition": "inconclusive: -31.6% [inhibitor]"},
      {"smiles": "CCOC(=O)N1CCC2(CC1)C(C(=O)C13CC4CC(CC(C4)C1)C3)C2(C#N)C#N", "note": "(configuration not stated)", "Potency": "inconclusive [inhibitor, single point]"},
      {"smiles": "Cc1cccc(Nc2ncc3c(n2)CC(c2ccco2)CC3=O)c1", "note": "(configuration not stated)", "Potency": "active: 20.6 µM"},
      {"smiles": "COC(=O)c1cn(CC(=O)N2CCCCCC2)c2ccccc12", "activity change, negative = growth inhibition": "inactive: 2.62%"},
      {"smiles": "NC(=O)C1(N2CCCCC2)CCN(C2CC(=O)N(Cc3ccc(N4CCCC4=O)cc3)C2=O)CC1", "note": "(configuration not stated)", "activity change, negative = growth inhibition": "inactive: -3.12%"},
      {"smiles": "Cc1noc(C)c1-c1ccc(C(=O)NCc2cccc(Cl)c2)c2occc12", "Potency": "inconclusive [inhibitor, single point]"},
      {"smiles": "Cc1ccc(S(=O)(=O)N2CCN(C(=O)CSc3nnc(-c4ccco4)o3)CC2)cc1", "Potency": "inconclusive [inhibitor, single point]"},
      {"smiles": "Oc1ccc(-c2cc(-c3ccc(O)cc3)nc(-c3ccccc3)n2)cc1", "Potency": "inconclusive [inhibitor, single point]"},
      {"smiles": "N#C/C(=C\\c1cccnc1)c1nc2ccccc2[nH]1", "Potency": "active: 5.8 µM"},
      {"smiles": "[O-][n+]1onc2c3cc(-c4ccccc4)nnc3ccc21", "Potency": "inconclusive [inhibitor, single point]"},
      {"smiles": "COc1cc(CN2CCC3(CCC(CNC(=O)c4ccccc4)O3)CC2)cc(OC)c1", "note": "(configuration not stated)", "Potency": "inconclusive [inhibitor, partial curve, poor fit]"},
      {"smiles": "Cc1ccc(NC(=O)C2CCN(S(=O)(=O)c3cc([N+](=O)[O-])ccc3Cl)CC2)nc1", "Potency": "active: 14.6 µM"},
      {"smiles": "CCOC(=O)/C(C#N)=C/c1c(N2CCN(c3cccc(Cl)c3)CC2)nc2c(C)cccn2c1=O", "Potency": "inconclusive [inhibitor, single point]"},
      {"smiles": "COc1ccccc1CNS(=O)(=O)c1cc(Br)cc2c1N(C(=O)C1CC1)CC2", "Potency": "inconclusive [inhibitor, single point]"},
      {"smiles": "CCOC(=O)c1ccc(N=C2SC(C(=O)NC)CC(=O)N2CCc2ccccc2)cc1", "note": "(configuration not stated)", "Potency": "inconclusive [inhibitor, single point]"},
      {"smiles": "O=C(OCc1cccc(F)c1)c1ccc2c(=O)n3c(nc2c1)CCC3", "Potency": "inconclusive [inhibitor, single point]"},
      {"smiles": "O=C(NCc1ccncc1)C1CCN(C(=O)c2cccc(Cl)c2)CC1", "activity change, negative = growth inhibition": "inactive: -8.32%"},
      {"smiles": "COc1ccc(CNC(=O)c2ccc3c(c2)N(Cc2cc(C)ccc2C)C(=O)CS3)cc1", "Potency": "inconclusive [inhibitor, partial curve]"},
      {"smiles": "CC(=O)c1ccc(N(CC(=O)Nc2cc(C)on2)S(=O)(=O)c2ccc(C)cc2)cc1", "Potency": "inconclusive [inhibitor, partial curve]"},
      {"smiles": "CC1=CCCC(C)(C)C1/C=C/C(C)=N/NC(=O)c1ccncc1", "note": "(configuration not stated)", "Potency": "inconclusive [inhibitor, single point]"},
      {"smiles": "COc1cc(C)c(CN2C[C@H](Sc3ccccn3)C[C@H]2C(=O)N(C)C)cc1C", "Potency": "inconclusive [inhibitor, partial curve]"},
      {"smiles": "O=C(NCc1ccccc1Cl)c1ccc2nnsc2c1", "Potency": "inconclusive [inhibitor, single point]"},
      {"smiles": "c1ccc(Cn2nnnc2CN2CCN(c3ncccn3)CC2)cc1", "activity change, negative = growth inhibition": "inactive: -21.2%"},
      {"smiles": "CC1CCCCN1S(=O)(=O)c1ccc(N(C(=O)c2cnccn2)C(C(=O)NC2CCCCC2)c2cccs2)cc1", "note": "(configuration not stated)", "Potency": "inconclusive [inhibitor, single point]"},
      {"smiles": "O=C(NC1=NCCS1)c1ccc(Cl)s1", "activity change, negative = growth inhibition": "inactive: 3.11%"},
      {"smiles": "CC(CNC(=O)c1ccc2c(c1)nc1n2CCCCC1)c1ccccc1", "note": "(configuration not stated)", "Potency": "inconclusive [inhibitor, single point]"}
    ]}
  ]
}
